Measured values taken from the supplement of paper PMC3334620.
Over roughly 33,000 sequences, “E-score (-0.5 to 0.5)” has its median near -0.043; the highest 2% begin near 0.37. The list shows a part of the results.

The sequences below were run against T1, Upc2 (UniProt Q12151) (assay: PBM E-score (8-mer binding enrichment) (E-score (-0.5 to 0.5)); higher = stronger / more preferred TF binding; most listed sequences are background and not binding sites). Conditions: protein concentration: 200 nM; construct: GST-full length.
T1 sequence: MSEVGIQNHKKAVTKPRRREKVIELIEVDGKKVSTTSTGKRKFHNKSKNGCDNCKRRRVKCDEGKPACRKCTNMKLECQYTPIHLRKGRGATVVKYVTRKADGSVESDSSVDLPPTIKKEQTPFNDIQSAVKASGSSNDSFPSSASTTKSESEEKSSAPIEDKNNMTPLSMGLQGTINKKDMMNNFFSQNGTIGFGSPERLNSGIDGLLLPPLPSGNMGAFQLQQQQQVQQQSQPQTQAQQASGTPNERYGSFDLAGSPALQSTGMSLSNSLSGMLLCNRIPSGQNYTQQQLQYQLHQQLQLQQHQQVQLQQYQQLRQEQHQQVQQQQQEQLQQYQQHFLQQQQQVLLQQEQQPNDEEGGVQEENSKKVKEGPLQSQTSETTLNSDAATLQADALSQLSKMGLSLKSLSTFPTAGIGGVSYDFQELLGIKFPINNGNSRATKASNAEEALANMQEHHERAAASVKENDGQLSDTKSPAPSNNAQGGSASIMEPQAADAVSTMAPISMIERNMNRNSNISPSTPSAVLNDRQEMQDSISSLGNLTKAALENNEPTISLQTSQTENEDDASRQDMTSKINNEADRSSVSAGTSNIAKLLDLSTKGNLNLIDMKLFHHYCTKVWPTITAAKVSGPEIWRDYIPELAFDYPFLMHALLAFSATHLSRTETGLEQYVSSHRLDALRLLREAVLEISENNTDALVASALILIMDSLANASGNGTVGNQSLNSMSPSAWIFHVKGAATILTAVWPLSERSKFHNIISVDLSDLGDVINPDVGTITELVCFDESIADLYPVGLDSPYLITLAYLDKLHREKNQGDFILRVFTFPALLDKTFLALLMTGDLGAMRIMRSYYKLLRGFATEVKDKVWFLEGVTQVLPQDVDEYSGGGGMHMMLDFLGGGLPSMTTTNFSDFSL
Outline: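 PURExpress in vitro transcription/translation supplied GST-tagged yeast transcription factors, either full-length or DNA-binding domain. Applied at about 100-200 nM to universal all-10-mer Agilent arrays double-stranded by primer extension, the bound protein was detected with fluorescent anti-GST. E-scores, modified Wilcoxon-Mann-Whitney statistics, were given by the Universal PBM Analysis Suite to ungapped eight-base words pooled with their reverse complements after masliner normalisation.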

| Sequence | PBM E-score |
| --- | --- |
| CCCCGGCA | -0.259 |
| CGAGATAA | 0.216 |
| ATGGAATG | -0.113 |
| ACTGTATC | 0.0883 |
| AACGCACC | 0.12 |
| AAAAGGGG | -0.144 |
| GGAAATAA | 0.0184 |
| ATCTTCGC | 0.151 |
| ATACAGTC | -0.0278 |
| CGTTGAGA | 0.108 |
| AGGCTTTC | -0.0495 |
| ACAACTTG | -0.203 |
| CCTAATGA | -0.148 |
| ACTATTGG | -0.285 |
| CTATGTCA | -0.221 |
| ACCCTTGC | -0.165 |
| ACACCACA | -0.0645 |
| ACGGCAAC | 0.184 |
| GATTATGC | 0.12 |
| GATATAAA | -0.078 |
| AAGAACCT | -0.161 |
| CCCGAGCG | 0.161 |
| ACGCTCTC | 0.0984 |
| TCATATGA | -0.0405 |
| GTAATTAA | 0.19 |

| Sequence | PBM E-score |
| --- | --- |
| GGTATCTA | 0.0832 |
| CTAACGTA | 0.224 |
| AGAGTGAC | -0.157 |
| AAGCAGCC | -0.178 |
| GGAAACGA | 0.428 |
| AACCGGTT | 0.107 |
| AATGCCAT | -0.00527 |
| TCCGCCGA | -0.0672 |
| AGAATTAA | -0.0706 |
| AACCGGGT | -0.0866 |
| ACACAGAA | -0.168 |
| CAGGTCAG | -0.0218 |
| GCAGGTCA | -0.133 |
| ACTCACGG | 0.0111 |
| ACCGTGGA | -0.0649 |
| CAGTAAGA | 0.143 |
| CCGACGAA | 0.067 |
| GCCTAGGC | -0.196 |
| ACGTCTAG | 0.0326 |
| CCTGGCTC | 0.00098 |
| AGTGACCG | -0.0264 |
| AGGTGAGC | -0.0394 |
| ACCCCCTG | -0.249 |
| GCCTGACC | -0.138 |
| AGTGGTGC | 0.0342 |

| Sequence | PBM E-score |
| --- | --- |
| ATAGTGGG | -0.169 |
| ACCACGCG | -0.093 |
| GTCAACCA | -0.0456 |
| ATGACGAC | -0.132 |
| ACTAAACA | -0.109 |
| CGTCATTA | -0.076 |
| AACCAACA | 0.105 |
| CGTTTATC | 0.425 |
| ATCATCCC | -0.236 |
| CGCGTGGA | -0.122 |
| CGTGGCAG | -0.12 |
| GTTAGGGA | 0.0198 |
| ATACAAAC | 0.229 |
| GTACTTAA | 0.0488 |
| CACAGGTC | -0.224 |
| ATAGGCCG | -0.0512 |
| CACGTTCG | 0.0393 |
| CTAGGAGA | -0.302 |
| AACCGCGT | 0.183 |
| TGACTCCA | -0.303 |
| TTAATAAA | 0.204 |
| GAATTGGA | -0.0632 |
| CGTTGCCC | 0.0273 |
| CCCCTAAG | -0.258 |
| CACGTAGC | -0.0699 |

| Sequence | PBM E-score |
| --- | --- |
| CATGAACC | 0.0199 |
| AAGACTTC | -0.0696 |
| CCGATACG | 0.392 |
| ACTCCTGG | -0.368 |
| CCGTCAGG | -0.0615 |
| GTAATGGA | 0.0506 |
| GACCATGC | 0.1 |
| CAACGTCA | -0.107 |
| TCCAAAAA | -0.123 |
| GAGACCGA | -0.0309 |
| AGCCTGCC | 0.0283 |
| GGCGCCGA | -0.113 |
| AACGAACA | 0.426 |
| ACCCAACG | -0.0397 |
| ATCCATAC | 0.152 |
| GGGAGTAC | -0.134 |
| ATGAAATA | -0.045 |
| GGGTAGAA | -0.106 |
| TGAACTCA | -0.00504 |
| GCCCTGAA | 0.0191 |
| AATCGCTA | 0.187 |
| CCTAAAGC | -0.082 |
| AAACTCCC | 0.0565 |
| AAGATTAG | -0.0994 |
| GCAGGCCC | -0.219 |

| Sequence | PBM E-score |
| --- | --- |
| CTTCAACC | -0.104 |
| ATATGGAC | -0.102 |
| CCCATTCC | -0.0714 |
| AACTAGAA | -0.0407 |
| GTCAGGAC | -0.234 |
| CCTAACCC | -0.0258 |
| ACGATGCT | 0.291 |
| ATTTTCGA | 0.0272 |
| GATGTCCC | 0.016 |
| GCCTTAGC | -0.155 |
| GTGGTCTA | -0.0348 |
| AATAGAAC | -0.0513 |
| CAGTTGAC | -0.0766 |
| CCGCGCCA | -0.253 |
| GCGTTGAA | 0.175 |
| AGCGCCCG | 0.144 |
| ACACCGTC | 0.0479 |
| CTAGTAGA | -0.0582 |
| CACGGCCC | -0.152 |
| CTTGGGAA | -0.0858 |
| CGTAAATA | 0.34 |
| ATTTTCCG | 0.139 |
| ATTCGTTA | 0.346 |
| AATCTTGA | -0.228 |
| CGGACTGC | 0.0294 |

| Sequence | PBM E-score |
| --- | --- |
| AATGCATG | -0.0284 |
| ATTGAGCG | 0.0842 |
| GTCGATCA | -0.0634 |
| GGTTTCAA | -0.0768 |
| GCCCGGTA | -0.0969 |
| ACTTTCTC | -0.0187 |
| CGCCCGCA | 0.0163 |
| CACGCTAA | 0.0372 |
| AGTGCCTG | -0.0969 |
| AGCATGCC | -0.244 |
| GGAAGTCA | -0.163 |
| GGGGTCAA | 0.0907 |
| AAACGAGA | 0.469 |
| AATGCTTA | -0.168 |
| GCTGCCCC | -0.0397 |
| AGGCATGG | -0.263 |
| ACCCATAA | -0.112 |
| CAGTTAAC | 0.034 |
| GCCCCCTA | -0.231 |
| AGATCGAG | -0.128 |
| ATCTCGCG | 0.168 |
| GAGCACAC | -0.269 |
| CTTCCAAG | -0.203 |
| GTTGCATA | -0.0318 |
| GATCCCCA | -0.0179 |

| Sequence | PBM E-score |
| --- | --- |
| CGAATCTA | 0.0484 |
| TGGCAGAA | -0.0458 |
| CCCTGTTC | -0.152 |
| CAACTGGG | -0.268 |
| AACATAAG | 0.0537 |
| CACTCAGG | -0.181 |
| AACCCACC | -0.133 |
| GACACCGA | 0.00328 |
| AGCAGCTA | -0.0413 |
| CCAATCGA | -0.0104 |
| GATACTTA | -0.128 |
| AGTCTCAG | -0.262 |
| ATCTACTA | -0.0466 |
| AAGCCATG | -0.141 |
| ATGTTAAC | 0.036 |
| ACTGTTTA | 0.0701 |
| AAACTGAC | -0.0907 |
| GATTTTCC | -0.157 |
| TCGGTCCA | 0.0954 |
| GTACTGTA | 0.146 |
| ATGGCGAC | -0.149 |
| ACTAATAG | -0.0385 |
